Columns and labels:
Assay type in all cases: in vivo
Botrytis cinerea = experiment: Test Example B: Gray mold on tomato; conditions: for control value, Test B (gray mold on tomato): Table 7, Test B; for Test B control value: Gray mold on tomato; for Test B control value (gray mold on tomato): class of control value, Table 7
Alternaia brassicicola = experiment: Test Example C: Alternaria sooty spot on cabbage; conditions: for control value, Test C (Alternaria sooty spot on cabbage): Table 7, Test C; for Test C control value: Alternaria sooty spot on cabbage; for Test C control value (Alternaria sooty spot on cabbage): class of control value, Table 7
[1] = system: Blumeria graminis f. sp. hordei; experiment: Test Example D: Powdery mildew on barley; conditions: for control value, Test D (powdery mildew on barley): Table 7, Test D; for Test D control value: Powdery mildew on barley; for Test D control value (powdery mildew on barley): class of control value, Table 7
Puccinia recondita = experiment: Test Example E: Brown rust on wheat; conditions: for control value, Test E (brown rust on wheat): Table 7, Test E; for Test E control value: Brown rust on wheat; for Test E control value (brown rust on wheat): class of control value, Table 7
Plasmopara viticola = experiment: Test Example G: Downy mildew on vine; conditions: for control value, Test G (downy mildew on vine): 250 ppm sprayed (2.5 ml/pot) before inoculation, assessed 7 to 10 days after inoculation; for Test G control value: Downy mildew on vine, 250 ppm sprayed, 7 to 10 days after inoculation; for Test G control value / Test G control value (downy mildew on vine): 2.5 ml/pot; for Test G control value (downy mildew on vine): 250 ppm spray, investigated 7 to 10 days after inoculation

SMILES: CCn1c(-c2ccc(C#N)cc2F)c(-n2cc(Cl)cn2)cc(Cl)c1=O [Compound 279]
- control value, Test B (gray mold on tomato) (Botrytis cinerea): H (H shows the control value more than 50%)
- control value, Test C (Alternaria sooty spot on cabbage) (Alternaia brassicicola): H (H shows the control value more than 50%)
- control value, Test D (powdery mildew on barley) [1]: L (L shows the control value of 50% or less)
- control value, Test E (brown rust on wheat) (Puccinia recondita): H (H shows the control value more than 50%)
- control value, Test G (downy mildew on vine) (Plasmopara viticola): L (L shows the control value of 50% or less)

SMILES: CCn1c(-c2c(F)cc(OC)cc2F)c(-n2cc(Cl)cn2)cc(Br)c1=O [Compound 73]
- Test B control value (Botrytis cinerea): H (H shows the control value more than 50%)
- Test C control value (Alternaia brassicicola): H (H shows the control value more than 50%)
- Test D control value [1]: H (H shows the control value more than 50%)
- Test E control value (Puccinia recondita): H (H shows the control value more than 50%)
- Test G control value (Plasmopara viticola): L (L shows the control value of 50% or less)

SMILES: CCn1c(-c2ccc(F)cc2Cl)c(-c2cnco2)cc(Cl)c1=O [Compound 32]
- Test B control value (Botrytis cinerea): H (H shows the control value more than 50%)
- Test C control value (Alternaia brassicicola): H (H shows the control value more than 50%)
- Test D control value [1]: L (L shows the control value of 50% or less)
- Test E control value (Puccinia recondita): H (H shows the control value more than 50%)
- Test G control value (Plasmopara viticola): L (L shows the control value of 50% or less)

SMILES: Cc1cnn(-c2ccc(=O)n(CC(F)F)c2-c2ccc(F)cc2Cl)c1 [Compound 342]
- control value, Test B (gray mold on tomato) (Botrytis cinerea): H (H shows the control value more than 50%)
- control value, Test C (Alternaria sooty spot on cabbage) (Alternaia brassicicola): H (H shows the control value more than 50%)
- control value, Test D (powdery mildew on barley) [1]: H (H shows the control value more than 50%)
- control value, Test E (brown rust on wheat) (Puccinia recondita): H (H shows the control value more than 50%)
- control value, Test G (downy mildew on vine) (Plasmopara viticola): L (L shows the control value of 50% or less)

SMILES: CCn1c(-c2c(F)cc(OC)cc2F)c(-c2ocnc2Cl)cc(Cl)c1=O [Compound 115]
- Test B control value (Botrytis cinerea): H (H shows the control value more than 50%)
- Test C control value (Alternaia brassicicola): H (H shows the control value more than 50%)
- Test D control value [1]: L (L shows the control value of 50% or less)
- Test E control value (Puccinia recondita): H (H shows the control value more than 50%)
- Test G control value (Plasmopara viticola): H (H shows the control value more than 50%)

SMILES: CCn1c(-c2c(F)cccc2F)c(-n2cc(Cl)cn2)cc(Cl)c1=O [Compound 53]
- Test B control value (Botrytis cinerea): H (H shows the control value more than 50%)
- Test C control value (Alternaia brassicicola): H (H shows the control value more than 50%)
- Test D control value [1]: L (L shows the control value of 50% or less)
- Test E control value (Puccinia recondita): H (H shows the control value more than 50%)
- Test G control value (Plasmopara viticola): L (L shows the control value of 50% or less)

SMILES: CCn1c(-c2ccc(Br)cc2F)c(-n2cc(C)cn2)ccc1=O [Compound 485]
- Test B control value (gray mold on tomato) (Botrytis cinerea): L (L shows the control value of 50% or less)
- Test C control value (Alternaria sooty spot on cabbage) (Alternaia brassicicola): H (H shows the control value more than 50%)
- Test D control value (powdery mildew on barley) [1]: H (H shows the control value more than 50%)
- Test E control value (brown rust on wheat) (Puccinia recondita): H (H shows the control value more than 50%)
- Test G control value (downy mildew on vine) (Plasmopara viticola): L (L shows the control value of 50% or less)

SMILES: Cc1cc(F)ccc1-c1c(-n2ncc(C)c2Cl)cc(Br)c(=O)n1C [Compound 514]
- Test B control value (gray mold on tomato) (Botrytis cinerea): H (H shows the control value more than 50%)
- Test C control value (Alternaria sooty spot on cabbage) (Alternaia brassicicola): H (H shows the control value more than 50%)
- Test D control value (powdery mildew on barley) [1]: H (H shows the control value more than 50%)
- Test E control value (brown rust on wheat) (Puccinia recondita): H (H shows the control value more than 50%)
- Test G control value (downy mildew on vine) (Plasmopara viticola): L (L shows the control value of 50% or less)

SMILES: CCn1c(-c2ccc(F)cc2C)c(-n2cc(Cl)cn2)cc(Cl)c1=O [Compound 170]
- Test B control value (Botrytis cinerea): L (L shows the control value of 50% or less)
- Test C control value (Alternaia brassicicola): H (H shows the control value more than 50%)
- Test D control value [1]: L (L shows the control value of 50% or less)
- Test E control value (Puccinia recondita): L (L shows the control value of 50% or less)
- Test G control value (Plasmopara viticola): L (L shows the control value of 50% or less)

SMILES: Cn1c(-c2c(F)cccc2F)c(-c2sccc2Cl)cc(Br)c1=O [Compound 441]
- Test B control value (gray mold on tomato) (Botrytis cinerea): H (H shows the control value more than 50%)
- Test C control value (Alternaria sooty spot on cabbage) (Alternaia brassicicola): H (H shows the control value more than 50%)
- Test D control value (powdery mildew on barley) [1]: L (L shows the control value of 50% or less)
- Test E control value (brown rust on wheat) (Puccinia recondita): H (H shows the control value more than 50%)
- Test G control value (downy mildew on vine) (Plasmopara viticola): L (L shows the control value of 50% or less)

SMILES: CCn1c(-c2ccccc2Cl)c(-n2ncc(C)c2Cl)cc(Cl)c1=O [Compound 179]
- Test B control value (Botrytis cinerea): H (H shows the control value more than 50%)
- Test C control value (Alternaia brassicicola): H (H shows the control value more than 50%)
- Test D control value [1]: H (H shows the control value more than 50%)
- Test E control value (Puccinia recondita): H (H shows the control value more than 50%)
- Test G control value (Plasmopara viticola): H (H shows the control value more than 50%)

SMILES: Cc1cnn(-c2cc(Br)c(=O)n(CC(F)F)c2-c2ccccc2Cl)c1Cl [Compound 230]
- control value, Test B (gray mold on tomato) (Botrytis cinerea): H (H shows the control value more than 50%)
- control value, Test C (Alternaria sooty spot on cabbage) (Alternaia brassicicola): H (H shows the control value more than 50%)
- control value, Test D (powdery mildew on barley) [1]: H (H shows the control value more than 50%)
- control value, Test E (brown rust on wheat) (Puccinia recondita): H (H shows the control value more than 50%)
- control value, Test G (downy mildew on vine) (Plasmopara viticola): H (H shows the control value more than 50%)

SMILES: Cn1c(-c2ccc(F)cc2Cl)c(-n2cc(Cl)cn2)cc(Cl)c1=O [Compound 452]
- Test B control value (gray mold on tomato) (Botrytis cinerea): H (H shows the control value more than 50%)
- Test C control value (Alternaria sooty spot on cabbage) (Alternaia brassicicola): H (H shows the control value more than 50%)
- Test D control value (powdery mildew on barley) [1]: H (H shows the control value more than 50%)
- Test E control value (brown rust on wheat) (Puccinia recondita): H (H shows the control value more than 50%)
- Test G control value (downy mildew on vine) (Plasmopara viticola): L (L shows the control value of 50% or less)

SMILES: CCn1c(-c2ccc(F)cc2Br)c(-n2ncc(C)c2Cl)cc(Cl)c1=O [Compound 331]
- control value, Test B (gray mold on tomato) (Botrytis cinerea): H (H shows the control value more than 50%)
- control value, Test C (Alternaria sooty spot on cabbage) (Alternaia brassicicola): H (H shows the control value more than 50%)
- control value, Test D (powdery mildew on barley) [1]: H (H shows the control value more than 50%)
- control value, Test E (brown rust on wheat) (Puccinia recondita): H (H shows the control value more than 50%)
- control value, Test G (downy mildew on vine) (Plasmopara viticola): H (H shows the control value more than 50%)

SMILES: CCn1c(-c2ccc(F)cc2Br)c(-n2cc(Cl)cn2)cc(Cl)c1=O [Compound 165]
- Test B control value (Botrytis cinerea): H (H shows the control value more than 50%)
- Test C control value (Alternaia brassicicola): H (H shows the control value more than 50%)
- Test D control value [1]: H (H shows the control value more than 50%)
- Test E control value (Puccinia recondita): H (H shows the control value more than 50%)
- Test G control value (Plasmopara viticola): L (L shows the control value of 50% or less)

SMILES: CCOC(=O)c1cncn1-c1cc(Cl)c(=O)n(CC)c1-c1c(F)cc(F)cc1F [Compound 129]
- Test B control value (Botrytis cinerea): L (L shows the control value of 50% or less)
- Test C control value (Alternaia brassicicola): H (H shows the control value more than 50%)
- Test D control value [1]: L (L shows the control value of 50% or less)
- Test E control value (Puccinia recondita): L (L shows the control value of 50% or less)
- Test G control value (Plasmopara viticola): H (H shows the control value more than 50%)

SMILES: Cn1c(-c2c(F)cccc2Cl)c(-n2cc(F)cn2)cc(Br)c1=O [Compound 510]
- Test B control value (gray mold on tomato) (Botrytis cinerea): H (H shows the control value more than 50%)
- Test C control value (Alternaria sooty spot on cabbage) (Alternaia brassicicola): H (H shows the control value more than 50%)
- Test D control value (powdery mildew on barley) [1]: H (H shows the control value more than 50%)
- Test E control value (brown rust on wheat) (Puccinia recondita): H (H shows the control value more than 50%)
- Test G control value (downy mildew on vine) (Plasmopara viticola): L (L shows the control value of 50% or less)

SMILES: Cn1c(-c2c(F)cc(F)cc2F)c(-n2cc(Cl)cn2)cc(Cl)c1=O [Compound 175]
- Test B control value (Botrytis cinerea): H (H shows the control value more than 50%)
- Test C control value (Alternaia brassicicola): H (H shows the control value more than 50%)
- Test D control value [1]: H (H shows the control value more than 50%)
- Test E control value (Puccinia recondita): H (H shows the control value more than 50%)
- Test G control value (Plasmopara viticola): L (L shows the control value of 50% or less)

SMILES: Cn1c(-c2ccc(F)cc2F)c(-n2cc(F)cn2)cc(Br)c1=O [Compound 465]
- Test B control value (gray mold on tomato) (Botrytis cinerea): H (H shows the control value more than 50%)
- Test C control value (Alternaria sooty spot on cabbage) (Alternaia brassicicola): H (H shows the control value more than 50%)
- Test D control value (powdery mildew on barley) [1]: L (L shows the control value of 50% or less)
- Test E control value (brown rust on wheat) (Puccinia recondita): H (H shows the control value more than 50%)
- Test G control value (downy mildew on vine) (Plasmopara viticola): L (L shows the control value of 50% or less)

SMILES: COc1cc(F)c(-c2c(-n3cc(Cl)cn3)cc(Cl)c(=O)n2CC(F)(F)F)c(F)c1 [Compound 122]
- Test B control value (Botrytis cinerea): H (H shows the control value more than 50%)
- Test C control value (Alternaia brassicicola): H (H shows the control value more than 50%)
- Test D control value [1]: H (H shows the control value more than 50%)
- Test E control value (Puccinia recondita): H (H shows the control value more than 50%)
- Test G control value (Plasmopara viticola): L (L shows the control value of 50% or less)

SMILES: CCn1c(-c2ccccc2Br)c(-n2cc(Cl)cn2)cc(Cl)c1=O [Compound 195]
- control value, Test B (gray mold on tomato) (Botrytis cinerea): H (H shows the control value more than 50%)
- control value, Test C (Alternaria sooty spot on cabbage) (Alternaia brassicicola): H (H shows the control value more than 50%)
- control value, Test D (powdery mildew on barley) [1]: L (L shows the control value of 50% or less)
- control value, Test E (brown rust on wheat) (Puccinia recondita): H (H shows the control value more than 50%)
- control value, Test G (downy mildew on vine) (Plasmopara viticola): L (L shows the control value of 50% or less)

— patent US11178870B2 (priority 2017, dated 2021)
